Sequences with one replicate were seen in a single cluster, so their values are uncertain.
What follows are sequences tested on ATP (assay: switch fluorescence ratio, 500 uM ATP over buffer (Cy3 cluster intensity, sum of 5 cycles each) (fold (ratio)); higher = stronger signal-on switching upon ATP binding; sequences stand for … in TCGTCGGCAGCGTCAGATGTGTATAAGAGACAGTTTTTTTTTTTTTTTTTTTTTTTTT…TC). Conditions: aptamer strand: ATP DNA aptamer (quencher-CACCTGGGGGAGTATTGCGGAGGAAGG + anchor), 100 nM annealed; ATP concentration: 500 uM; one replicate.
Procedure, shortened: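 Cy3-labelled switching-strand clusters on a modified Illumina MiSeq flow-cell were annealed to 100 nM quencher-labelled ATP aptamer and imaged first in selection buffer, then after 15 min with 500 uM ATP at 22 °C. NaOH stripping and re-annealing separated each of five buffer/ATP cycles, and clusters outside 100-1000 RFU were excluded. The fluorescence ratio sums target-cycle Cy3 intensity over buffer-cycle Cy3 intensity per cluster and averages it per switch-domain sequence.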
For TGGACCACAC, the switch fluorescence ratio was 1.31. In the case of TGGACCCGG, the switch fluorescence ratio is reported as 1.07. For TGGACCCTCA, the switch fluorescence ratio was 1.01. TGGACGCCCT was tested, and the switch fluorescence ratio was 1.78. With TGGACGGTT the switch fluorescence ratio was 1.07. Sequence TGGAGACCGA has a switch fluorescence ratio of 1.01. TGGAGACTGT was tested, and the switch fluorescence ratio was 1.04. TGGAGAGCTG showed a switch fluorescence ratio of 1.03. TGGAGCACGA gave a switch fluorescence ratio of 1.23. TGGAGCAGGT was tested, and the switch fluorescence ratio was 1.1. TGGAGGGCCG was tested, and the switch fluorescence ratio was 1.13. With TGGAGGGTCT the switch fluorescence ratio was 1.01. TGGAGTACAG showed a switch fluorescence ratio of 1. TGGAGTCTGC was tested, and the switch fluorescence ratio was 1.13. TGGATCAGTA showed a switch fluorescence ratio of 1. TGGATCCAAT was tested, and the switch fluorescence ratio was 1.02. Sequence TGGATGGCAC has a switch fluorescence ratio of 1.02. In the case of TGGATGGTCC, the switch fluorescence ratio is reported as 0.993. TGGATTCACT was tested, and the switch fluorescence ratio was 0.971. Work on TGGATTGAAT yielded a switch fluorescence ratio of 0.999. TGGATTTAA was tested, and the switch fluorescence ratio was 0.991. TGGCAAACAA gave a switch fluorescence ratio of 1.07. In the case of TGGCAAGCTG, the switch fluorescence ratio is reported as 1.05. TGGCACCTGC was tested, and the switch fluorescence ratio was 0.997. Work on TGGCACTTAA yielded a switch fluorescence ratio of 1.02. TGGCAGCCTC gave a switch fluorescence ratio of 0.968. TGGCAGTTAG was tested, and the switch fluorescence ratio was 1.01. TGGCATATGT showed a switch fluorescence ratio of 1. TGGCATTAAA gave a switch fluorescence ratio of 0.964. Work on TGGCATTGG yielded a switch fluorescence ratio of 0.942. TGGCCACTTT showed a switch fluorescence ratio of 0.988. TGGCCCACA showed a switch fluorescence ratio of 1.02. TGGCCCGTTG was tested, and the switch fluorescence ratio was 1.04. Work on TGGCCGGTCG yielded a switch fluorescence ratio of 0.975. For TGGCCGGTGC, the switch fluorescence ratio was 0.997. With TGGCCTTGGC the switch fluorescence ratio was 0.987. For TGGCGCTG, the switch fluorescence ratio was 0.994. TGGCGGCATT showed a switch fluorescence ratio of 1.01. Work on TGGCGGTAGA yielded a switch fluorescence ratio of 1.01. TGGCGTCCGG gave a switch fluorescence ratio of 0.988. Sequence TGGCGTTTGT has a switch fluorescence ratio of 0.995. With TGGCTACACA the switch fluorescence ratio was 1.07. With TGGCTACTAA the switch fluorescence ratio was 1.02. TGGCTCAGCA showed a switch fluorescence ratio of 1.13. With TGGCTCTAAT the switch fluorescence ratio was 1.01. With TGGCTCTG the switch fluorescence ratio was 1. TGGCTGACTA showed a switch fluorescence ratio of 0.993. In the case of TGGCTGAGGC, the switch fluorescence ratio is reported as 0.981. TGGCTGAGTC was tested, and the switch fluorescence ratio was 1. TGGCTTCCTC gave a switch fluorescence ratio of 2.76. TGGGAAAGAG showed a switch fluorescence ratio of 0.957. For TGGGAAGACG, the switch fluorescence ratio was 1.02. With TGGGAATTAG the switch fluorescence ratio was 0.987. Sequence TGGGACAATG has a switch fluorescence ratio of 0.96. TGGGACCATC was tested, and the switch fluorescence ratio was 0.959. TGGGACTAG showed a switch fluorescence ratio of 0.971. Sequence TGGGAGGTGC has a switch fluorescence ratio of 1.05. TGGGATCACG was tested, and the switch fluorescence ratio was 0.984. Work on TGGGATTCCA yielded a switch fluorescence ratio of 0.958. Work on TGGGATTCCG yielded a switch fluorescence ratio of 0.989. With TGGGATTGCA the switch fluorescence ratio was 0.97. Sequence TGGGCAAAA has a switch fluorescence ratio of 1.1. Work on TGGGCAAAC yielded a switch fluorescence ratio of 1.65. In the case of TGGGCACATT, the switch fluorescence ratio is reported as 0.96. TGGGCAGAAT gave a switch fluorescence ratio of 1.08. With TGGGCATTAG the switch fluorescence ratio was 1.05. In the case of TGGGCCTTCG, the switch fluorescence ratio is reported as 1.24. TGGGCGGCCA was tested, and the switch fluorescence ratio was 0.951. Sequence TGGGCGTGCA has a switch fluorescence ratio of 1.02. TGGGCTTTAT gave a switch fluorescence ratio of 1.01. TGGGCTTTCA was tested, and the switch fluorescence ratio was 1.02. TGGGGCGGGC was tested, and the switch fluorescence ratio was 0.992. TGGGGCTGAT was tested, and the switch fluorescence ratio was 0.992. For TGGGGGATCG, the switch fluorescence ratio was 1.1. With TGGGGTAATA the switch fluorescence ratio was 1.01. TGGGGTCGGA gave a switch fluorescence ratio of 0.953. Sequence TGGGGTGACC has a switch fluorescence ratio of 0.997. Sequence TGGGGTTGCT has a switch fluorescence ratio of 0.941. With TGGGTAGCTA the switch fluorescence ratio was 1.04. With TGGGTAGTCT the switch fluorescence ratio was 0.99. In the case of TGGGTATCTG, the switch fluorescence ratio is reported as 0.993. With TGGGTATGAC the switch fluorescence ratio was 0.988. For TGGGTCGGCC, the switch fluorescence ratio was 0.995. Work on TGGGTGTAGA yielded a switch fluorescence ratio of 1.02. For TGGGTTAGTC, the switch fluorescence ratio was 0.968. For TGGGTTGGAC, the switch fluorescence ratio was 0.967. Work on TGGTAAGAAT yielded a switch fluorescence ratio of 1.02. TGGTAAGAGA gave a switch fluorescence ratio of 0.975. TGGTAATAGA was tested, and the switch fluorescence ratio was 1.01. TGGTAATTAA was tested, and the switch fluorescence ratio was 1.01. Work on TGGTAATTCC yielded a switch fluorescence ratio of 1.05. Sequence TGGTACCGTG has a switch fluorescence ratio of 1.02. In the case of TGGTAGCCA, the switch fluorescence ratio is reported as 1.03. Work on TGGTAGCTGA yielded a switch fluorescence ratio of 1. Sequence TGGTAGTGGC has a switch fluorescence ratio of 0.981. For TGGTATCCAG, the switch fluorescence ratio was 0.986. TGGTATGGCC showed a switch fluorescence ratio of 1.02. With TGGTCAAGG the switch fluorescence ratio was 0.968. In the case of TGGTCATTGT, the switch fluorescence ratio is reported as 0.979. With TGGTCGAATT the switch fluorescence ratio was 0.958. Sequence TGGTCGAGCA has a switch fluorescence ratio of 0.994. For TGGTCGTTGA, the switch fluorescence ratio was 1.01. TGGTCTTCAC gave a switch fluorescence ratio of 0.985. With TGGTGAACAA the switch fluorescence ratio was 1.01. Sequence TGGTGAAGA has a switch fluorescence ratio of 1.02. With TGGTGAGTT the switch fluorescence ratio was 1. Sequence TGGTGATCTA has a switch fluorescence ratio of 0.989. TGGTGCAGTG gave a switch fluorescence ratio of 1.01. TGGTGCATCT was tested, and the switch fluorescence ratio was 1. With TGGTGCCCAG the switch fluorescence ratio was 1.03. Sequence TGGTGCCGCC has a switch fluorescence ratio of 0.995. Sequence TGGTGCGCGC has a switch fluorescence ratio of 0.898. Sequence TGGTGCGTGG has a switch fluorescence ratio of 0.949. Work on TGGTGGATAC yielded a switch fluorescence ratio of 1.02. TGGTGGCCTA showed a switch fluorescence ratio of 1.01. TGGTGTCCGG showed a switch fluorescence ratio of 0.981. With TGGTGTGCTA the switch fluorescence ratio was 0.948. Work on TGGTGTTTAG yielded a switch fluorescence ratio of 0.995. In the case of TGGTTAATTT, the switch fluorescence ratio is reported as 1. In the case of TGGTTACATT, the switch fluorescence ratio is reported as 1.01. With TGGTTAGTAT the switch fluorescence ratio was 1.03. TGGTTCGCGC gave a switch fluorescence ratio of 1.09. Sequence TGGTTGAGCG has a switch fluorescence ratio of 0.959. Work on TGGTTGCTGC yielded a switch fluorescence ratio of 0.972. In the case of TGGTTGGAAT, the switch fluorescence ratio is reported as 0.986. With TGGTTGGATT the switch fluorescence ratio was 0.939. TGGTTGTGAC gave a switch fluorescence ratio of 0.997. For TGGTTGTTCG, the switch fluorescence ratio was 0.982. In the case of TGGTTTACTT, the switch fluorescence ratio is reported as 0.983. TGGTTTAGG showed a switch fluorescence ratio of 0.96. TGGTTTCATG gave a switch fluorescence ratio of 0.986. Sequence TGGTTTTTAT has a switch fluorescence ratio of 0.991. Work on TGTAAAAATT yielded a switch fluorescence ratio of 1.01. TGTAACTAGC showed a switch fluorescence ratio of 1.08. In the case of TGTAAGATA, the switch fluorescence ratio is reported as 1. With TGTAAGCGCC the switch fluorescence ratio was 0.974. Work on TGTAAGGCGA yielded a switch fluorescence ratio of 0.972. TGTAAGTGAG showed a switch fluorescence ratio of 0.962. TGTAATACCG gave a switch fluorescence ratio of 1.03. TGTAATCCAG was tested, and the switch fluorescence ratio was 0.987. Work on TGTAATGAAT yielded a switch fluorescence ratio of 1.01. Sequence TGTAGAAGGC has a switch fluorescence ratio of 1.01. For TGTAGACGTG, the switch fluorescence ratio was 1.01. In the case of TGTAGCACTT, the switch fluorescence ratio is reported as 1.05. In the case of TGTAGCTGAG, the switch fluorescence ratio is reported as 1.06. TGTAGGCCGG was tested, and the switch fluorescence ratio was 0.992. Work on TGTAGGCCT yielded a switch fluorescence ratio of 0.973. TGTAGGCTAG was tested, and the switch fluorescence ratio was 0.987. In the case of TGTAGTCAGG, the switch fluorescence ratio is reported as 0.999. TGTAGTGAGG showed a switch fluorescence ratio of 0.969. TGTAGTTCAT was tested, and the switch fluorescence ratio was 1.01. Sequence TGTATAAATG has a switch fluorescence ratio of 1.01. Work on TGTATGAAAT yielded a switch fluorescence ratio of 0.999. For TGTATGAGGC, the switch fluorescence ratio was 1. With TGTATGGAGT the switch fluorescence ratio was 0.975. Sequence TGTATGTTCC has a switch fluorescence ratio of 1.09. Work on TGTATTAGTC yielded a switch fluorescence ratio of 1.07. In the case of TGTATTGCTT, the switch fluorescence ratio is reported as 0.987. With TGTCACTGAA the switch fluorescence ratio was 1.05. TGTCAGAGGT gave a switch fluorescence ratio of 1.01. Sequence TGTCAGTTCG has a switch fluorescence ratio of 1.04. TGTCATTGG showed a switch fluorescence ratio of 0.994. TGTCATTGGC gave a switch fluorescence ratio of 0.976. TGTCATTTGG was tested, and the switch fluorescence ratio was 0.967. Sequence TGTCCCTTGG has a switch fluorescence ratio of 1.02. For TGTCCTTACG, the switch fluorescence ratio was 1.03. Work on TGTCGAAGTG yielded a switch fluorescence ratio of 0.983. TGTCGATCTC was tested, and the switch fluorescence ratio was 0.989. TGTCGCGGGT gave a switch fluorescence ratio of 1.02. In the case of TGTCGGCCCT, the switch fluorescence ratio is reported as 1.03. With TGTCGTATCG the switch fluorescence ratio was 0.982. Work on TGTCTAAAGC yielded a switch fluorescence ratio of 0.96. In the case of TGTCTAGAGG, the switch fluorescence ratio is reported as 0.995. Sequence TGTCTGACCG has a switch fluorescence ratio of 0.953. Work on TGTCTGCTTG yielded a switch fluorescence ratio of 0.955. With TGTCTGGGAC the switch fluorescence ratio was 1. For TGTCTTCATT, the switch fluorescence ratio was 1.03. Work on TGTCTTGGGG yielded a switch fluorescence ratio of 1.01. TGTGAAAGAA was tested, and the switch fluorescence ratio was 0.977. Sequence TGTGAAAGTA has a switch fluorescence ratio of 0.998. For TGTGAAATGA, the switch fluorescence ratio was 0.968. TGTGAAATTG showed a switch fluorescence ratio of 0.998. TGTGAAGAGG was tested, and the switch fluorescence ratio was 0.992. TGTGAAGATT showed a switch fluorescence ratio of 0.976. TGTGAATGAC showed a switch fluorescence ratio of 1. For TGTGACCGGG, the switch fluorescence ratio was 1.03. With TGTGACGAGT the switch fluorescence ratio was 0.972. Work on TGTGATGGAC yielded a switch fluorescence ratio of 1.27. TGTGATTGAT showed a switch fluorescence ratio of 0.991. In the case of TGTGCATTAT, the switch fluorescence ratio is reported as 1.01. TGTGCGAGCA was tested, and the switch fluorescence ratio was 1.02. Work on TGTGGAAACC yielded a switch fluorescence ratio of 1.07. For TGTGGACGGG, the switch fluorescence ratio was 0.984. TGTGGAGGGT gave a switch fluorescence ratio of 0.98. Sequence TGTGGAGTAA has a switch fluorescence ratio of 1.07. Work on TGTGGCATCA yielded a switch fluorescence ratio of 0.992. Sequence TGTGGCGGGT has a switch fluorescence ratio of 0.986. With TGTGGCTCAG the switch fluorescence ratio was 1.01. Work on TGTGGGCGAC yielded a switch fluorescence ratio of 0.991. For TGTGGTATGA, the switch fluorescence ratio was 1.01. Sequence TGTGTACACG has a switch fluorescence ratio of 1.04.

— the supplement of paper PMC10126150
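Also: ATP exposure 15 min at 22 °C before imaging.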
